B1: N3-8-1: N3-8 derivative; VH SEQ ID NO: 45, VL 51; HC 103, LC 111 (antibody)
heavy: EVQLLESGGGLVQPGGSLRLSCAASGFTFSSYDMSWVRQAPGKGLEWVSAISPYSGRIYYADSVKGRFTISRDNSKNTLYLQMNSLRAEDTAVYYCARMALDFDYWGQGTLVTVSS[letters of human IgG1 constant region omitted]
light: QSVLTQPPSASGTPGQRVTISCTGSSSNIGSNYVTWYQQLPGTAPKLLIYDNSNRPSGVPDRFSGSKSGTSASLAISGLQSEDEADYYCSSFSDELGAYVFGGGTKLTVLGQPKAAPSVTLFPPSSEELQANKATLVCLISDFYPGAVTVAWKADSSPVKAGVETTTPSKQSNNKYAASSYLSLTPEQWKSHRSYSCQVTHEGSTVEKTVAPTECS
modifications: IgG heavy chain 6; IgG light chain 3
notes: N3-8 derivative; HC 103, LC 111
B2: N3-8-1 mutant LALAPGTA: N3-8-1 with ADCC/CDC function removed; HC SEQ ID NO: 232, LC 111 (antibody)
heavy: EVQLLESGGGLVQPGGSLRLSCAASGFTFSSYDMSWVRQAPGKGLEWVSAISPYSGRIYYADSVKGRFTISRDNSKNTLYLQMNSLRAEDTAVYYCARMALDFDYWGQGTLVTVSSASTKGPSVFPLAPSSKSTSGGTAALGCLVKDYFPEPVTVSWNSGALTSGVHTFPAVLQSSGLYSLSSVVTVPSSSLGTQTYICNVNHKPSNTKVDKKV[letters of human IgG1 Fc with L234A L235A T299A P329G (EU numbers) omitted]
light: B1 light
modifications: IgG heavy chain 6_IgG1 mutant LALAPGTA_amino acid; IgG light chain 3

What was measured:
[1] = Thermal stability (protein thermal shift dye kit); type: physicochemical; details: 1 mg/ml purified antibody
Experimental: In addition, the thermal stability of the antibody was measured using 100 μl of the purified antibodies at a concentration of 1 mg/ml. Thermostability was investigated 4 times using protein thermal shift dye kit (Thermofisher) and Quant Studio 3 Real-time PCR equipment (Thermofisher).

[2] = tested on: RAW264.7 cells; assay: LN421-dependent immune cell migration assay; type: cell-based; details: 10 nM, 24 hours, LN421 2.5 μg/ml; FIG. 18
Experimental: In order to confirm the effect of the mutant antibody from which the ADCC/CDC function had been removed on immune cell migration, a cell migration assay was performed according to the method described in the prior literature (Park, S. G. et al. Human lysyl-tRNA synthetase is secreted to trigger pro-inflammatory response, Proc. Natl. Acad. Sci. USA 102, 6356-6361 (2005)).
Measurements were made in a trans well chamber with a polycarbonate membrane (5.0 μm pore size, Costar). LN421 was put into the lower chamber at a concentration of 2.5 μg/ml in the trans well chamber. Then, RAW264.7 cells were placed in the upper chamber at a concentration of 5×10^4 cells per well. Then, each antibody was put into the chamber at a concentration of 10 nM, and then incubated for 24 hours. Then, it was washed twice with PBS and treated with 70% MeOH (in PBS). After washing twice with PBS again, the transferred cells were stained with crystal violet (Sigma) and dried. Then, the upper chamber was put in 33% acetic acid (Merck) and stirred for 10 minutes. Crystal violet-dissolved acetic acid solution was transferred to a 96-well plate, and absorbance was measured at 590 nm in a microplate reader (Tecan).

[3] = tested on: T52D KRS-MDA-MB-231 stable cells; assay: Laminin-dependent cancer cell migration assay; type: cell-based; details: 10 nM, 7 hours; FIG. 19
Experimental: Measurements were made in a 24-well trans well chamber with a polycarbonate membrane (8.0 μm pore size, Costar). Laminin was added to the lower chamber at a concentration of 1 mg/ml, and a migration assay was performed using stable MDA-MB-231 cells overexpressing T52D KRS, which mimics a phosphorylated KRS. To induce T52D KRS expression, T52D KRS-MDA-MB-231 stable cells were treated with doxycycline (0.1 μg/ml) for one day, and then seeded in the upper chamber at a concentration of 4×10^4 cells after suspended in serum-free RPMI medium. […] The non-migrating cells existing above the membrane were removed with a cotton swab. The membrane was washed twice with PBS and treated with 70% MeOH (in PBS) for 30 minutes. Again washed twice with PBS, the membrane was stained using crystal violet (Slgma), and dried. Then, the upper chamber was put in 33% acetic acid (Merck) and stirred. Crystal violet-dissolved acetic acid solution was transferred to a 96-well plate, and absorbance was measured at 590 nm in a microplate reader (Tecan).

Molecule | Thermal stability Tm1 [1] | LN421-dependent cell migration [2] | laminin-dependent migration of cancer cells [3]
B1 | 69.94 | inhibited LN421-dependent cell migration | inhibited the laminin-dependent migration of cancer cells
B2 | – | inhibited LN421-dependent cell migration | inhibited the laminin-dependent migration of cancer cells

Source: patent publication US12679903B2, “Antibody for specifically binding to lysyl-tRNA synthetase N-terminal domain exposed to extracellular membrane” (Zymedi Co., Ltd., priority 2018, dated 2026)
